B1: TPR 5TU (parent)
chain: GGAUCUUCUCGAUCUAACAAAAAAGACAAAUCUGCCACAAAGCUUGAGAGCAUCUUCGGAUGCAGAGGCGGCAGCCUUCGGUGGCGCGAUAGCGCCAACGUUCUCAACUAUGACACGCAAAACGCGUGCUCCGUUGAAUGGAGUUUAUCAUG

Variants at the floor of the assay are shown more often than the library holds them. A value given as a limit tells only on which side of the number the result lay.

In the data set the parent is B1. Briefly: polymerase ribozyme fitness, log enrichment relative to wild type (log ratio); higher = more active; in vitro selection for triplet polymerase activity. Put shortly:
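PCR was used to build mutant libraries for each subunit of a heterodimeric triplet polymerase ribozyme, which were then transcribed. A single in vitro selection round, in triplicate, used a frozen incubation at −7 °C and recovered extended constructs by gel excision, streptavidin beads and RT-PCR. Fitness is the logarithm of genotype enrichment relative to wild-type enrichment, averaged over replicates with inverse-variance weights. The logarithm is base 2, and after Illumina sequencing only genotypes with ≥10 input reads and ≥1 read per output were kept.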
For GGAUCUUCUCGAUCUAACAAAAAAGACAAAUCUGCCACAAAGCUUGAGAGCAUCUUCGGAUGCAGAGGCGGCAGCCUUCGGUGGCGCGAUAGUGCCAACGUUCUCAACUAUGACAUGCAAAACGCGUGCUCCGUUGAAUGGAGUUUAUCAUG, the “polymerase ribozyme fitness (log ratio)” value was -0.9.

In the case of GGAUCUUCUCGAUCUAACAAAAAAGACAAAUCUGCCACAAAGCUUGAGAGCAUCUUCGGAUGCAGAGGCGGCAGCCUUCGGUGGCGCGAUAGUGGCAACGUUCUCAACUAUGACACGCAAAACGCGUGCUCCGUUGAAUGGAGUUUAUCAUG, the “polymerase ribozyme fitness (log ratio)” value was -2.26.

For GGAUCUUCUCGAUCUAACAAAAAAGACAAAUCUGCCACAAAGCUUGAGAGCAUCUUCGGAUGCAGAGGCGGCAGCCUUCGGUGGCGCGAUAGUGUCAACGUUCUCAACUAUGACACGCAAAACGCGUGCUCCGUUGAAUGGAGUUUAUCAUG, the “polymerase ribozyme fitness (log ratio)” value is -2.43.

With GGAUCUUCUCGAUCUAACAAAAAAGACAAAUCUGCCACAAAGCUUGAGAGCAUCUUCGGAUGCAGAGGCGGCAGCCUUCGGUGGCGCGAUAGUGCCAACGUUCUCAACUAUGACACGCAAAACGCGUGCUCCGUUGAAUGGAGCUUAUCAUG, the “polymerase ribozyme fitness (log ratio)” value was -1.07.

With GGAUCUUCUCGAUCUAACAAAAAAGACAAAUCUGCCACAAAGCUUGAGAGCAUCUUCGGAUGCAGAGGCGGCAGCCUUCGGUGGCGCGAUAGUUCCAACGUUCUCACCUAUGACACGCAAAACGCGUGCUCCGUUGAAUGGAGUUUAUCAUG, the “polymerase ribozyme fitness (log ratio)” value was at most -4.2.

With GGAUCUUCUCGAUCUAACAAAAAAGACAAAUCUGCCACAAAGCUUGAGAGCAUCUUCGGAUGCAGAGGCGGCAGCCUUCGGUGGCGCGAUAGUGGCAACGUUCUCAACUAUGGCACGCAAAACGCGUGCUCCGUUGUUUGGAGUUUAUCAUG, the “polymerase ribozyme fitness (log ratio)” value is at most -4.2.

In the case of GGAUCUUCUCGAUCUAACAAAAAAGACAAAUCUGCCACAAAGCUUGAGAGCAUCUUCGGAUGCAGAGGCGGCAGCCUUCGGUGGCGCGAUAGUGCCAACGUUCUCAACUAUGACACGCAAAACGCGUGCUCCGUUGUAUGGAGUUUAUCAUG, the “polymerase ribozyme fitness (log ratio)” value is at most -4.2.

Turning to GGAUCUUCUCGAUCUAACAAAAAAGACAAAUCUGCCACAAAGCUUGAGAGCAUCUUCGGAUGCAGAGGCGGCAGCCUUCGGUGGCGCGAUAGUGCCAACGUUCUCAACUAUGACACGCAAAACGCGUGCUCCGUUGGAUGGAGUUUAUCAUG, the “polymerase ribozyme fitness (log ratio)” value is -3.18.

For GGAUCUUCUCGAUCUAACAAAAAAGACAAAUCUGCCACAAAGCUUGAGAGCAUCUUCGGAUGCAGAGGCGGCAGCCUUCGGUGGCGCGAUAGUGCCAACGUUCUCAACUAUGACACGCAAAACGCGUGCUCCGUUGCAUGGAGUUUAUCAUG, the “polymerase ribozyme fitness (log ratio)” value was -4.07.

As to GGAUCUUCUCGAUCUAACAAAAAAGACAAAUCUGCCACAAAGCUUGAGAGCAUCUUCGGAUGCAGAGGCGGCAGCCUUCGGUGGCGCGAUAGUGCCAACGUUCUCAACUAUGACACGCAAAACGCGUGCUCCGUUGGAUGGAGUUUAUUAUG, the “polymerase ribozyme fitness (log ratio)” value is -2.47.

GGAUCUUCUCGAUCUAACAAAAAAGACAAAUCUGCCACAAAGCUUGAGAGCAUCUUCGGAUGCAGAGGCGGCAGCCUUCGGUGGCGCGAUAGUGCCAAGGUUCUCUACUAUGACACGCAAAACGCGUGCUCCGUUGAAUGGAGUUUAUCAUG: the “polymerase ribozyme fitness (log ratio)” value is at most -4.2.

For the variant GGAUCUUCUCGAUCUAACAAAAAAGACAAAUCUGCCACAAAGCUUGAGAGCAUCUUCGGAUGCAGAGGCGGCAGCCUUCGGUGGCGCGAUAGUGCCAACGUUCUCAACUAUGACACGCAAAACGCGUGCUCCGUGGAAAGGAGUUUAUCAUG, the “polymerase ribozyme fitness (log ratio)” value was at most -4.2.

Consider GGAUCUUCUCGAUCUAACAAAAAAGACAAAUCUGCCACAAAGCUUGAGAGCAUCUUCGGAUGCAGAGGCGGCAGCCUUCGGUGGCGCGAUAGUGCCAACGUUCUCAACUAUGACACGCAAAACGCGUGCUCCGUUGAAUUGAGUUUAACAUG, for which the “polymerase ribozyme fitness (log ratio)” value was at most -4.2.

Consider GGAUCUUCUCGAUCUAACAAAAAAGACAAAUCUGCCACAAAGCUUGAGAGCAUCUUCGGAUGCAGAGGCGGCAGCCUUCGGUGGCGCGAUAGUGCCAACGUUCUCAACUAUGACACGCAAAACGCGUGCUCCGUCGAAUGGAGUUUAUCAUG, for which the “polymerase ribozyme fitness (log ratio)” value is -2.76.

For the variant GGAUCUUCUCGAUCUAACAAAAAAGACAAAUCUGCCACAAAGCUUGAGAGCAUCUUCGGAUGCAGAGGCGGCAGCCUUCGGUGGCGCGAUAGUGCCAACGUUCUCAACUAUGACACGCAAAACGCGUCCUCCGUUGAAUGGAGUUUAUCAUG, the “polymerase ribozyme fitness (log ratio)” value was -3.31.

For GGAUCUUCUCGAUCUAACAAAAAAGACAAAUCUGCCACAAAGCUUGAGAGCAUCUUCGGAUGCAGAGGCGGCAGCCUUCGGUGGCGCGAUAGUGCCAACGUUCUCAACUAUGACACGCAAAAGGCGUGCUCCGUUGACUGGAGUUUAUCAUG, the “polymerase ribozyme fitness (log ratio)” value is at most -4.2.

With GGAUCUUCUCGAUCUAACAAAAAAGACAAAUCUGCCACAAAGCUUGAGAGCAUCUUCGGAUGCAGAGGCGGCAGCCUUCGGUGGCGCGAUAGUGCAAAUGUGCUCAACUGUGACACGCAAAACGCGUGCUCCGUUGAAUGGAGUUUAUCAUG, the “polymerase ribozyme fitness (log ratio)” value was at most -4.2.

As for GGAUCUUCUCGAUCUAACAAAAAAGACAAAUCUGCCACAAAGCUUGAGAGCAUCUUCGGAUGCAGAGGCGGCAGCCUUCGGUGGCGCGAUAGCACCUACGUUCUCAACUAUGACACGCAAAACGGGUGCUCCGUUGAAUGGAGUUUAUCAUG, the “polymerase ribozyme fitness (log ratio)” value was -2.14.

As to GGAUCUUCUCGAUCUAACAAAAAAGACAAAUCUGCCACAAAGCUUGAGAGCAUCUUCGGAUGCAGAGGCGGCAGCCUUCGGUGGCGCGAUAGUGCCAACGUUCUCAACUAUGACACGCAAAUCGCGUGCUCCGUUGAAUGGAGUUUAUCAUG, the “polymerase ribozyme fitness (log ratio)” value is -0.696.

Values taken from the RNAGym collection of RNA variant scans (doi:10.1073/pnas.2313332121).
